Among the data in article PMC7819943, “Rice protein-binding microarrays: a tool to detect cis-acting elements near promoter regions in rice” are binding signal values, retold here.

This is one part of the list.

The target of this assay is T1, OsWOX13 (Oryza sativa, UniProt Q5QMM3 1-267).
T1 sequence: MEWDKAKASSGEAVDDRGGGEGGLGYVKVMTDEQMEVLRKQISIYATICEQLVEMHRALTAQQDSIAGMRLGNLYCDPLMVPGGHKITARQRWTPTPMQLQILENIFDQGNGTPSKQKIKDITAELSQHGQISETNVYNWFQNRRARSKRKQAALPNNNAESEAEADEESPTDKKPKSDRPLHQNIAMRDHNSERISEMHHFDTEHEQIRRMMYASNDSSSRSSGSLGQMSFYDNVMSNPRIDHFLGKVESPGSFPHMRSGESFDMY
The assay can be described thus: protein-binding microarray (RPBM); PBS, 2% BSA, 51.3 ng/ul salmon testes DNA, 50 uM zinc acetate, 200 nM TF, 25 C, 1 h; high values mean tight binding. The following applies: protein: recombinant; tags: N-terminal polyhistidine and DsRed monomer fusion (pET32a); label: CyDye5-dUTP incorporated in the synthesized complementary strand; 3' TTTTT single-stranded linker to array surface; dsDNA, one strand shown. The procedure, abridged:
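A custom Agilent array was converted to double-stranded form by primer extension with Cy5-dUTP and blocked with 2% BSA. Protein at 200 nM in PBS with 2% BSA, salmon testes DNA and 50 µM zinc acetate was applied for 1 h at 25 °C, followed by washing. The proteins were polyhistidine–DsRed N-terminal fusions of transcription factors, expressed in E. coli BL21-CodonPlus and Ni–NTA-purified. The binding signal is per-feature fluorescence intensity (arbitrary units) from an Axon 4000B scanner.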
In the case of “GTGATCATTAGTGAGTTTGATTAGTTGATTTTGTTGGGGTCGGAGTCACCTAGTGCAG”, the binding signal was 16100 fluorescence intensity (a.u.).
For “AGGTTAATTTGGAGCGTCACGGGCTAGTTCCGATCGGTACCGGAGTCACCTAGTGCAG”, the binding signal is 21100 fluorescence intensity (a.u.).
The same measure for “AGAGATTGAGCAAAATTCAGGGGTACAGAAGGGATTAGGTCGGAGTCACCTAGTGCAG”: 8990 fluorescence intensity (a.u.); for “TATAGACAAAATTATTATATTTTGGAACCAAAGGGAGTAGCGGAGTCACCTAGTGCAG”: 4510 fluorescence intensity (a.u.).
The figure for “AATCAAAATTATTATTTCTTGTGTTGTCAACTCGTCACCCCGGAGTCACCTAGTGCAG” is 3700 fluorescence intensity (a.u.).
Consider “AACTAATTTCATAACTTACTTGGAAACCGCGAGACAAATGCGGAGTCACCTAGTGCAG”, for which the binding signal is 5900 fluorescence intensity (a.u.).
Turning to “CTAAATTTGTAAACATTGTCTTGATATTTCTTTGTTTCCTCGGAGTCACCTAGTGCAG”, the binding signal was 13700 fluorescence intensity (a.u.).
For “TGGCTCAAATCTAATTGCAATTAACAATAATCATTTATAGCGGAGTCACCTAGTGCAG”, the binding signal was 27400 fluorescence intensity (a.u.).
The same measure for “CATTAAATTAAGGGGTAATATGCATAATAGGTTGCCTCTACGGAGTCACCTAGTGCAG”: 14600 fluorescence intensity (a.u.).
With “TCTTCTGTAATTTCTGTCAATACTCCTTCCATGATTTGCTCGGAGTCACCTAGTGCAG”, the binding signal is 9320 fluorescence intensity (a.u.).
The figure for “AGCCCGTAAATTACTCATACGTAATATTGTCAACCTAGGCCGGAGTCACCTAGTGCAG” is 6680 fluorescence intensity (a.u.); for “TATATATATATATATATATATATATATATATATGGGGTAACGGAGTCACCTAGTGCAG” it is 29700 fluorescence intensity (a.u.).
Regarding “GTTTTAAATTATAGTGGATCGAACAATTGTCAACACCTGTCGGAGTCACCTAGTGCAG”, the binding signal is 5920 fluorescence intensity (a.u.).
Take “CTGGTGATTGATAAAACTCCTGAAACTATGAAACAGAACTCGGAGTCACCTAGTGCAG”: the binding signal was 42800 fluorescence intensity (a.u.).
The same measure for “TTGGGAAGGATTGACCATGCAATCAATGTCTACCACAGTACGGAGTCACCTAGTGCAG”: 3570 fluorescence intensity (a.u.); for “GTTGATTTAATTATGGTTAACCTCTCACAGTAATCCGGGTCGGAGTCACCTAGTGCAG”: 64800 fluorescence intensity (a.u.); for “TAAATAACTGAACGGATTGGAGGCAGGAGACAAATTTGACCGGAGTCACCTAGTGCAG”: 6490 fluorescence intensity (a.u.).
Take “TAAGATTTGATATGCATTAATTATTGTCCAGTGATAAGCCCGGAGTCACCTAGTGCAG”: the binding signal was 35600 fluorescence intensity (a.u.).
In the case of “GTACAGTTACAATGTAATTGTGTCTCAATTATATACTACTCGGAGTCACCTAGTGCAG”, the binding signal was 5310 fluorescence intensity (a.u.).
The figure for “ATTGAAGATGGTAATTGATGGCTTTGCTGCATTCTTTCGCCGGAGTCACCTAGTGCAG” is 19900 fluorescence intensity (a.u.).
With “TAGTCCTGATTGTTAGAAAGTTGCACCCATCGAGTAATCACGGAGTCACCTAGTGCAG”, the binding signal was 15500 fluorescence intensity (a.u.).
The same measure for “GTTTGATTACTTAGTCCTTCTCGTTTCCTGGCAACTATGACGGAGTCACCTAGTGCAG”: 31700 fluorescence intensity (a.u.); for “CTCAACCATGATTTGCCGCTTCCTCCCGACCAATTAACACCGGAGTCACCTAGTGCAG”: 11600 fluorescence intensity (a.u.); for “TTGTATTTATAATGGAACGGATGGGGTATTTAGGATGGGCCGGAGTCACCTAGTGCAG”: 35800 fluorescence intensity (a.u.).
The same measure for “TTCCAGCCAATCATCTCACTCCTGAACTTGTTCAGAGGGACGGAGTCACCTAGTGCAG”: 12900 fluorescence intensity (a.u.); for “TGACAAATTGGACCACACAGACGCGATATCCACATCTGTCCGGAGTCACCTAGTGCAG”: 22000 fluorescence intensity (a.u.).
The figure for “TTTAATGCGTGATTATCCATTCTTCCACACATGATTGGCTCGGAGTCACCTAGTGCAG” is 42900 fluorescence intensity (a.u.).
For “CCACGTGTCATTGACATATGAGTGGCAAATAGATAAATTGCGGAGTCACCTAGTGCAG”, the binding signal is 6200 fluorescence intensity (a.u.).
The same measure for “CTCTAATAAAGAAACTAATTACATAATCCGTCAATAAACCCGGAGTCACCTAGTGCAG”: 6980 fluorescence intensity (a.u.); for “AGCAATTTTCGGTGATTAATCGCTAATCGACTAAGGCGATCGGAGTCACCTAGTGCAG”: 12800 fluorescence intensity (a.u.); for “ATAATTTTGAAATTATTAACATGATATAAATGAGATAGAGCGGAGTCACCTAGTGCAG”: 16200 fluorescence intensity (a.u.).
The same measure for “CATTCAATTAATTGGTATGGCAGGATGAACAGAGTGAGGTCGGAGTCACCTAGTGCAG”: 45100 fluorescence intensity (a.u.).
In the case of “ATACGCAATTATTGGTTCAAAGGAAGAAAAGAGAGGATGCCGGAGTCACCTAGTGCAG”, the binding signal is 3320 fluorescence intensity (a.u.).
Take “TTCTTTTCTGATTGATTGAACGGAACAGAGATGTATACCACGGAGTCACCTAGTGCAG”: the binding signal was 50900 fluorescence intensity (a.u.).
As to “TAAGGGCAATTAATTAAGTTATTTGGCTACACAGTTACCCCGGAGTCACCTAGTGCAG”, the binding signal was 10300 fluorescence intensity (a.u.).
Regarding “ATGACCTTTTAATTAAACATTAATAATGTTATTAGGTCCTCGGAGTCACCTAGTGCAG”, the binding signal is 9580 fluorescence intensity (a.u.).
The figure for “TTTTAATTATTATTAAGTGAAAACAGCATGCGGTCAGTGGCGGAGTCACCTAGTGCAG” is 27900 fluorescence intensity (a.u.).
On to “CTAATTAAACCGTCATTAGCATATGTGGGTTACTGTAGCACGGAGTCACCTAGTGCAG”, for which the binding signal is 19600 fluorescence intensity (a.u.).
The figure for “ACAAATTGAAAATTTTCGAACCTCGGAATCTTCTTTGAATCGGAGTCACCTAGTGCAG” is 34300 fluorescence intensity (a.u.); for “AGTGAATAATCACTGCTACTGATGGGTATACTAGAGGGGACGGAGTCACCTAGTGCAG” it is 6980 fluorescence intensity (a.u.); for “TCATTAATGATCTAATCACCAACTAAACTCCCTATCAATTCGGAGTCACCTAGTGCAG” it is 18200 fluorescence intensity (a.u.).
The same measure for “TGCTTAATTGAGGAGTAGTTTTGTCCGGCTAATTTGCTAGCGGAGTCACCTAGTGCAG”: 48700 fluorescence intensity (a.u.).
